In the supplement of paper PMC10037445:
Over roughly 2,900 compounds, “IRF Lucia reporter activity, fold change vs agonist alone” has its median near 0.9; the highest 2% begin near 2.8. The list shows a part of the results.

Columns and labels:
RAW-Dual [1] = test: IRF Lucia reporter activity, fold change vs agonist alone; cytotoxicity flag (confluency mask): not cytotoxic; higher = enhanced IRF activity
Summary of the method: (§1)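 Cytotoxic wells were those whose IncuCyte confluency was below 70% of agonist controls in both mask sets. The cells were RAW-Dual macrophages at 50,000 cells/well in DMEM on 384-well plates, dosed with 50 nL of library stock by pin tool, stimulated with a PRR agonist 1 h later, and kept at 37 °C, 5% CO2 for 20 hours. IRF and NF-κB reporter activity, as fold change over agonist-alone wells, came from supernatant read by QuantiLuc luminescence and QuantiBlue absorbance, respectively.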

RAW-Dual [2] = test: IRF Lucia reporter activity, fold change vs agonist alone; higher = enhanced IRF activity; conditions: cytotoxicity flag (confluency mask): not cytotoxic, agonist: MPLA (TLR4) […]
Summary of the method: as §1

RAW-Dual [3] = test: IRF Lucia reporter activity, fold change vs agonist alone; cytotoxicity flag (confluency mask): cytotoxic (confluency <70% of control); higher = enhanced IRF activity
Summary of the method: as §1

[4] = agonist: 3'3'-cGAMP (STING) 10 ug/mL
[5] = library stock concentration (final ~1000-fold dilution): 10 mM
[6] = library stock concentration (final ~1000-fold dilution): 2 mM

## CC1CNCCCN1S(=O)(=O)c1cccc2cncc(F)c12.Cl.O.O (stereo unspecified) (library stock concentration (final ~1000-fold dilution): 10 mM)
RAW-Dual [1]; [4]
  IRF Lucia reporter activity: 0.884
RAW-Dual [1]; agonist: LPS (TLR4) 0.1 ug/mL
  IRF Lucia reporter activity: 1.03

## Nc1nc(=S)c2[nH]cnc2[nH]1 (library stock concentration (final ~1000-fold dilution): 10 mM)
RAW-Dual [1]; [4]
  IRF Lucia reporter activity: 0.383
RAW-Dual [1]; agonist: LPS (TLR4) 0.1 ug/mL
  IRF Lucia reporter activity: 0.723

## Nc1nc(=S)c2[nH]cnc2[nH]1
RAW-Dual [2]; [5]
  IRF Lucia reporter activity: 0.595

## O=C1c2ccccc2C(=O)c2c1ccc(O)c2O
RAW-Dual [2]; [5]
  IRF Lucia reporter activity: 0.936

## O=C1c2ccccc2C(=O)c2c1ccc(O)c2O (library stock concentration (final ~1000-fold dilution): 10 mM)
RAW-Dual [1]; [4]
  IRF Lucia reporter activity: 0.887
RAW-Dual [1]; agonist: LPS (TLR4) 0.1 ug/mL
  IRF Lucia reporter activity: 0.943

## COC(=O)[C@]12CCC(C)(C)C[C@H]1[C@H]1C(=O)C=C3[C@@]4(C)C=C(C#N)C(=O)C(C)(C)[C@@H]4CC[C@@]3(C)[C@]1(C)CC2 (library stock concentration (final ~1000-fold dilution): 10 mM)
RAW-Dual [3]; [4]
  IRF Lucia reporter activity: 0.00682
RAW-Dual [3]; agonist: LPS (TLR4) 0.1 ug/mL
  IRF Lucia reporter activity: 0.0098

## CCCOc1ccn2c(C(C)=O)cc(-c3ccccc3S(C)(=O)=O)c2c1 (library stock concentration (final ~1000-fold dilution): 10 mM)
RAW-Dual [1]; [4]
  IRF Lucia reporter activity: 0.81
RAW-Dual [1]; agonist: LPS (TLR4) 0.1 ug/mL
  IRF Lucia reporter activity: 0.654

## CCCOc1ccn2c(C(C)=O)cc(-c3ccccc3S(C)(=O)=O)c2c1
RAW-Dual [2]; [5]
  IRF Lucia reporter activity: 0.859

## CC(/C=C1\SC(=S)N(CC(=O)O)C1=O)=C\c1ccccc1 (library stock concentration (final ~1000-fold dilution): 2 mM)
RAW-Dual [1]; [4]
  IRF Lucia reporter activity: 1.05
RAW-Dual [1]; agonist: LPS (TLR4) 0.1 ug/mL
  IRF Lucia reporter activity: 0.924

## CC(/C=C1\SC(=S)N(CC(=O)O)C1=O)=C\c1ccccc1
RAW-Dual [2]; [6]
  IRF Lucia reporter activity: 1.3

## c1ccc(CNc2nc(NCc3ccccc3)c3ccccc3n2)cc1 (library stock concentration (final ~1000-fold dilution): 10 mM)
RAW-Dual [1]; [4]
  IRF Lucia reporter activity: 0.0289
RAW-Dual [1]; agonist: LPS (TLR4) 0.1 ug/mL
  IRF Lucia reporter activity: 0.0281

## c1ccc(CNc2nc(NCc3ccccc3)c3ccccc3n2)cc1
RAW-Dual [2]; [5]
  IRF Lucia reporter activity: 0.0214

## NCC1OC(OC2C(CO)OC(OC3C(O)C(N)CC(N)C3OC3OC(CO)C(O)C(O)C3N)C2O)C(N)C(O)C1O.O=S(=O)(O)O (stereo unspecified) (library stock concentration (final ~1000-fold dilution): 10 mM water)
RAW-Dual [1]; [4]
  IRF Lucia reporter activity: 1.27
RAW-Dual [1]; agonist: LPS (TLR4) 0.1 ug/mL
  IRF Lucia reporter activity: 1.08

## NCC1OC(OC2C(CO)OC(OC3C(O)C(N)CC(N)C3OC3OC(CO)C(O)C(O)C3N)C2O)C(N)C(O)C1O.O=S(=O)(O)O (stereo unspecified)
RAW-Dual [2]; library stock concentration (final ~1000-fold dilution): 10 mM water
  IRF Lucia reporter activity: 1.24

## COC(=O)CCSCc1ccc(-c2onc(C)c2NC(=O)OC(C)c2ccccc2Cl)cc1 (stereo unspecified) (library stock concentration (final ~1000-fold dilution): 10 mM)
RAW-Dual [1]; [4]
  IRF Lucia reporter activity: 1.03
RAW-Dual [1]; agonist: LPS (TLR4) 0.1 ug/mL
  IRF Lucia reporter activity: 0.918

## COC(=O)CCSCc1ccc(-c2onc(C)c2NC(=O)OC(C)c2ccccc2Cl)cc1 (stereo unspecified)
RAW-Dual [2]; [5]
  IRF Lucia reporter activity: 1.04

## C=C(CC(=O)OCCCCCCCC)C(=O)O (library stock concentration (final ~1000-fold dilution): 10 mM)
RAW-Dual [1]; [4]
  IRF Lucia reporter activity: 0.619
RAW-Dual [1]; agonist: LPS (TLR4) 0.1 ug/mL
  IRF Lucia reporter activity: 1.11

## O=c1oc2ccccc2c(O)c1Cc1c(O)c2ccccc2oc1=O
RAW-Dual [2]; [5]
  IRF Lucia reporter activity: 1.06

## O=c1oc2ccccc2c(O)c1Cc1c(O)c2ccccc2oc1=O (library stock concentration (final ~1000-fold dilution): 10 mM)
RAW-Dual [1]; [4]
  IRF Lucia reporter activity: 1.04
RAW-Dual [1]; agonist: LPS (TLR4) 0.1 ug/mL
  IRF Lucia reporter activity: 1.27

## CC(CSC(=O)c1ccccc1)C(=O)N1CC(Sc2ccccc2)CC1C(=O)O (stereo unspecified) (library stock concentration (final ~1000-fold dilution): 2 mM)
RAW-Dual [1]; [4]
  IRF Lucia reporter activity: 0.997
RAW-Dual [1]; agonist: LPS (TLR4) 0.1 ug/mL
  IRF Lucia reporter activity: 1.01

## CC(CSC(=O)c1ccccc1)C(=O)N1CC(Sc2ccccc2)CC1C(=O)O (stereo unspecified)
RAW-Dual [2]; [6]
  IRF Lucia reporter activity: 1.34

## CS(=O)(=O)N1CCc2c(-c3cnc(N)nc3)nc(N3CCOCC3)nc21
RAW-Dual [2]; [5]
  IRF Lucia reporter activity: 1.07

## CS(=O)(=O)N1CCc2c(-c3cnc(N)nc3)nc(N3CCOCC3)nc21 (library stock concentration (final ~1000-fold dilution): 10 mM)
RAW-Dual [1]; [4]
  IRF Lucia reporter activity: 0.838
RAW-Dual [1]; agonist: LPS (TLR4) 0.1 ug/mL
  IRF Lucia reporter activity: 0.852

## C=C(C)C(=O)Nc1cccc(-c2ncnc3[nH]cc(C(=O)OCC)c23)c1 (library stock concentration (final ~1000-fold dilution): 10 mM)
RAW-Dual [1]; [4]
  IRF Lucia reporter activity: 0.831
RAW-Dual [1]; agonist: LPS (TLR4) 0.1 ug/mL
  IRF Lucia reporter activity: 0.835

## Cc1ccccc1CN1C2=NCCN2C(=O)C2=C1CCN(Cc1ccccc1)C2
RAW-Dual [2]; [5]
  IRF Lucia reporter activity: 1.02

## Cc1ccccc1CN1C2=NCCN2C(=O)C2=C1CCN(Cc1ccccc1)C2 (library stock concentration (final ~1000-fold dilution): 10 mM)
RAW-Dual [1]; [4]
  IRF Lucia reporter activity: 1.02
RAW-Dual [1]; agonist: LPS (TLR4) 0.1 ug/mL
  IRF Lucia reporter activity: 1.17
